{"source": "PubChem BioAssay AID463173", "about": "(ICCB-Longwood Screening Facility, Harvard Medical School, 2010)", "note": "The campaign covered roughly 52,000 compounds. About 1,700 (3.3%) were called active. Rule as the data show it: active = survival mostly below about 52% (no sharp cut-off); inactive = mostly above about 56%. The list shows a part of the results.", "data": [{"test_system": "Wild type", "assay": "growth inhibition of S. aureus wild type versus tarO mutant, primary screen, teichoic acid synthesis inhibitors, RN4220, OD600 (AID 463173)", "conditions": "S. aureus RN4220 wild type/DeltatarO growth, OD600, 18 h, hits give low values, screened at 18.75 µg/mL (by protocol)", "values": [{"smiles": "COc1cccc(Cn2c(CNS(=O)(=O)c3ccc(F)c(Cl)c3)nc3cccnc32)c1", "survival": "inactive: 159%"}, {"smiles": "O=C(c1ccc2c(c1)OCCO2)N(Cc1cccnc1)c1nc2c(Cl)cccc2s1", "survival": "inactive: 128%"}, {"smiles": "O=S(=O)(NCC(c1cccs1)S(=O)(=O)c1ccccc1)c1ccc(F)cc1", "note": "(stereo not given)", "survival": "inactive: 64%"}, {"smiles": "Cc1ccccc1-c1nn2c(=O)cc(CN3CCN(C(=O)/C=C/c4ccccc4)CC3)nc2s1", "survival": "inactive: 135%"}, {"smiles": "CCc1ccc(NC(=O)Cn2c(=O)n(CCC(=O)N3CCc4ccccc4C3)c(=O)c3ccccc32)cc1", "survival": "inactive: 112%"}, {"smiles": "CCOc1ccccc1CNC(=O)c1cc(-c2ccc(Cl)s2)nc2ccccc12", "survival": "inactive: 90%"}, {"smiles": "CCOC(=O)c1ccc(NC(=O)C2CCN(S(=O)(=O)c3ccc4c(c3)CCCC(=O)N4)CC2)cc1", "survival": "inactive: 59%"}, {"smiles": "Cc1cc(OCC(=O)NCC2(N3CCN(C)CC3)CCCCC2)cc(C)c1Cl", "survival": "inactive: 80%"}, {"smiles": "Cc1c(Cl)cccc1N=C1NC(=O)CS1", "survival": "inactive: 116%"}, {"smiles": "COc1ccc(-c2cc(NCc3ccc(F)cc3)n3cnnc3n2)cc1", "survival": "inactive: 72%"}, {"smiles": "O=C(Cc1ccccc1)Nc1sc2c(c1C(=O)Nc1ccccc1Cl)CCC2", "survival": "inactive: 46%"}, {"smiles": "CCn1c(SCc2ccccc2)nnc1-c1cccnc1", "survival": "inactive: 99%"}, {"smiles": "Cc1nn(CC(=O)NCCc2ccc(Cl)cc2)c(=O)c2cc3cc(F)ccc3n12", "survival": "inactive: 74%"}, {"smiles": "CCCN1C(=O)C(Cc2nc3ccccc3c(=O)n2CC)c2ccccc21", "note": "(stereo not given)", "survival": "inactive: 82%"}, {"smiles": "CCCc1cc(N2CCN(c3cc(Cl)ccc3C)CC2)n2cnnc2n1", "survival": "inactive: 41%"}, {"smiles": "COc1ccc(CNC(=O)Cn2nc(C)c3nn(-c4ccc(Cl)cc4)c(C)c3c2=O)cc1", "survival": "inactive: 69%"}, {"smiles": "Cc1cc(N2CCCC(O)C2)nc(C)n1", "note": "(stereo not given)", "survival": "inactive: 113%"}, {"smiles": "Cc1ccc(NC(=O)CCc2nnc3n(CC(C)C)c(=O)c4ccccc4n23)cc1C", "survival": "inactive: 92%"}, {"smiles": "Cc1ccc(-n2nc3c(N4CCC(C(=O)N5CCCCC5)CC4)nnc(C)c3c2C)cc1", "survival": "inactive: 94%"}, {"smiles": "O=S(=O)(c1ccccc1)c1nnn2c1nc(NCc1cccs1)c1sccc12", "survival": "inactive: 87%"}, {"smiles": "Cc1ccc2oc(C(=O)Nc3c(C(=O)Nc4ccccc4)oc4ccccc34)cc(=O)c2c1", "survival": "inactive: 81%"}, {"smiles": "CCCOc1ccc(N2CC(C(=O)Nc3cccc(Cl)c3Cl)CC2=O)cc1", "note": "(stereo not given)", "survival": "inactive: 160%"}, {"smiles": "CCOc1ccc(CCNC(=O)CN2C(=O)COc3ccc(S(=O)(=O)N4CCC(C)CC4)cc32)cc1", "survival": "inactive: 73%"}, {"smiles": "Cc1ccc(NC(=O)CCn2cccn2)cc1Cl", "survival": "inactive: 68%"}, {"smiles": "Cc1cc(C)cc(Nc2cc(-c3ccccc3)nc(C)n2)c1", "survival": "active: 10%"}, {"smiles": "c1ccc2c(c1)oc1c(NC3CCCC3)ncnc12", "survival": "inactive: 123%"}, {"smiles": "COc1ccc(NC(=O)Cn2c(=O)n(-c3ccccc3)c(=O)c3c4c(sc32)CCCC4)cc1", "survival": "inactive: 110%"}, {"smiles": "COC(=O)c1c(NC(=O)c2cc3nc(-c4ccc(OC)cc4)cc(C(F)(F)F)n3n2)sc2c1CCCC2", "survival": "inactive: 73%"}, {"smiles": "Cc1ccc(NC2=CC(c3ccccc3F)N(c3ccc(C)cc3)C2=O)cc1", "note": "(stereo not given)", "survival": "inactive: 61%"}, {"smiles": "CCCCN(C)c1nnc(NC(=O)Nc2cccc(C(C)=O)c2)s1", "survival": "inactive: 109%"}, {"smiles": "O=C(CN1C=NS(=O)(=O)c2ccccc21)Nc1ccc(F)cc1", "survival": "inactive: 82%"}, {"smiles": "COc1ccc(-c2cc3nc(C)c(CCC(=O)N4CCN(c5cccc(Cl)c5)CC4)c(C)n3n2)c(OC)c1", "survival": "inactive: 66%"}, {"smiles": "O=C(NCc1cccs1)c1ccc2c(c1)N(Cc1ccccc1Cl)C(=O)c1ccccc1S2", "survival": "inactive: 69%"}, {"smiles": "COc1cccc(CNC(=O)C2CCN(c3ncccn3)CC2)c1", "survival": "inactive: 102%"}, {"smiles": "CCOc1ccccc1NC(=O)C(Cc1ccccc1)NS(=O)(=O)c1ccc2c(c1)oc(=O)n2C", "note": "(stereo not given)", "survival": "inactive: 73%"}, {"smiles": "CC(C)Cn1c(=O)c2ccccc2n2c(CCC(=O)NCc3ccccc3Cl)nnc12", "survival": "inactive: 87%"}, {"smiles": "COc1ccc(-c2cc(C(=O)OCC(=O)c3ccc(C)cc3)c3cccc(Cl)c3n2)cc1", "survival": "inactive: 82%"}, {"smiles": "Cc1ccccc1-c1ncnn1-c1sc2c(c1C#N)CCCCC2", "survival": "inactive: 65%"}, {"smiles": "O=C1NC(=O)C2C3c4ccccc4C(c4ccccc43)C12", "note": "(stereo not given)", "survival": "inactive: 117%"}, {"smiles": "C=CCn1c(SC)nc2c1c(=O)[nH]c(=O)n2C", "survival": "inactive: 99%"}, {"smiles": "CN(C(=O)c1cc(-c2ccccc2)on1)C1CCCCC1", "survival": "inactive: 118%"}, {"smiles": "COc1ccc(CNC(=O)c2cc3cc(C)ccc3n2C)cc1", "survival": "inactive: 89%"}, {"smiles": "CC(=O)NCCNC(=O)CCCc1nnc2n(C)c(=O)c3sccc3n12", "survival": "inactive: 86%"}, {"smiles": "COc1ccc(-n2nnnc2SCSc2nnnn2-c2ccc(OC)cc2)cc1", "survival": "inactive: 113%"}, {"smiles": "Cc1sc2c(c1C)c(=O)n(CCc1ccccc1)c(=O)n2Cc1cccc(F)c1", "survival": "active: 9%"}, {"smiles": "O=C(NCc1ccccc1Br)c1ccc2nc(N3CCCCC3)sc2c1", "survival": "inactive: 81%"}, {"smiles": "CCCCN(CCCC)C(=O)CN(C)S(=O)(=O)c1ccc2c(c1)c(=O)n(C)c(=O)n2C", "survival": "inactive: 124%"}, {"smiles": "CC(Nc1ccc(-c2nc(-c3ccncc3)no2)cc1[N+](=O)[O-])c1ccccc1", "note": "(stereo not given)", "survival": "inactive: 87%"}, {"smiles": "O=C(Nc1cc(F)ccc1F)C1CCN(c2nc3ccccc3n3cccc23)CC1", "survival": "inactive: 84%"}, {"smiles": "COCCNC(=O)Cn1cc(/C=C(\\C#N)C(N)=O)c2ccccc21", "survival": "inactive: 114%"}, {"smiles": "Cc1ccc(-n2c(=O)c3c(c4cc(C)ccc4n3C)n(CC(=O)NCc3ccccc3Cl)c2=O)cc1", "survival": "inactive: 66%"}, {"smiles": "COc1ccc2oc(=O)cc(CN3CCN(c4ccc(F)cc4)CC3)c2c1", "survival": "inactive: 72%"}, {"smiles": "CCCCNC(=O)C(CC)Sc1nnc(-c2cccc(F)c2)c(-c2cccc(F)c2)n1", "note": "(stereo not given)", "survival": "inactive: 71%"}, {"smiles": "Cc1cccc(C(=O)Nc2ccc(-c3nc4ccccc4s3)cc2Cl)c1", "survival": "inactive: 59%"}, {"smiles": "CCCCOC(=O)c1ccc(Nc2ncnc3[nH]ncc23)cc1", "survival": "inactive: 65%"}, {"smiles": "COc1ccc(CCC(=O)NC2CC(=O)N(c3ccc(C)cc3)C2)cc1", "note": "(stereo not given)", "survival": "inactive: 69%"}, {"smiles": "Cc1cccc(NC(=O)Cn2c(=O)n(-c3ccccc3Cl)c(=O)c3c(C)c(C(=O)N(C)C)sc32)c1", "survival": "inactive: 72%"}, {"smiles": "CCOC(=O)c1ccc(NC(=O)CN(c2ccc(C)cc2)S(=O)(=O)c2c(C)noc2C)cc1", "survival": "inactive: 110%"}, {"smiles": "Cc1nc2c(C(=O)NCCc3ccc(Cl)cc3)cnn2c(C)c1Cc1c(F)cccc1Cl", "survival": "inactive: 59%"}, {"smiles": "Oc1ccccc1C1OCC(C2CC=CCC2)CO1", "note": "(stereo not given)", "survival": "inactive: 110%"}, {"smiles": "Cc1cc(C)cc(N2CC(c3nc(-c4ccccc4C)no3)CC2=O)c1", "note": "(stereo not given)", "survival": "inactive: 95%"}, {"smiles": "CC(=O)Nc1c(C)nn(-c2ccccc2)c1N1CCC(C(=O)NCc2ccc(Cl)cc2)CC1", "survival": "inactive: 81%"}, {"smiles": "Cc1ccccc1CNC(=O)C(C)n1nc(C)n2c(cc3occc32)c1=O", "note": "(stereo not given)", "survival": "inactive: 64%"}, {"smiles": "O=C(CN1C(=O)c2ccccc2C1=O)OC(C(=O)NC1CCCC1)c1ccncc1", "note": "(stereo not given)", "survival": "inactive: 105%"}, {"smiles": "COc1ccc(NC(=O)C2=CC(c3cccs3)=NS(=O)(=O)N2C)cc1", "survival": "inactive: 92%"}, {"smiles": "Cc1ccc(NC(=O)CN2C(=O)CCSc3ccc(S(=O)(=O)N4CCCC4)cc32)cc1", "survival": "inactive: 91%"}, {"smiles": "COc1ccc(CC(=O)Nc2nc3c(s2)CC(C(C)(C)C)CC3)cc1", "note": "(stereo not given)", "survival": "inactive: 70%"}, {"smiles": "CCn1c(CNC(=O)c2ccc(OC)cc2)nnc1SCC(=O)Nc1ccc(OC)cc1", "survival": "inactive: 131%"}, {"smiles": "CCc1ccc(-c2nc(CSCC(=O)NCc3ccccc3OC)c(C)o2)cc1", "survival": "inactive: 78%"}, {"smiles": "Cc1ccc(-c2nc3c(c(SCC(=O)N4CCCCC4)n2)Cc2cc(C)ccc2O3)cc1", "survival": "inactive: 70%"}, {"smiles": "COc1ccc(-c2nc3scc(CCNS(=O)(=O)c4ccc(F)cc4F)n3n2)cc1OC", "survival": "inactive: 64%"}, {"smiles": "CC(C)NC(=O)Nc1ccc2c(c1)N(C)C(=O)c1ccccc1S2", "survival": "inactive: 121%"}, {"smiles": "O=C(NCCc1ccccc1)c1ccc2c(c1)N(Cc1ccccc1Cl)C(=O)c1ccccc1S2", "survival": "inactive: 74%"}, {"smiles": "CCOc1ccc(CC(=O)Nc2ccc3nc(N4CCCCC4)cc(C)c3c2)cc1OCC", "survival": "inactive: 101%"}, {"smiles": "COc1ccccc1CNC(=O)C(Cc1ccccc1)NS(=O)(=O)c1ccc2c(c1)oc(=O)n2C", "note": "(stereo not given)", "survival": "inactive: 80%"}, {"smiles": "CCOC(=O)c1cccc(NC(=O)CSc2ncc3c(n2)-c2ccccc2N(C)S3(=O)=O)c1", "survival": "inactive: 47%"}, {"smiles": "O=C1CC(c2nc3ccccc3n2CCCCOc2ccccc2)CN1c1ccccc1Cl", "note": "(stereo not given)", "survival": "inactive: 61%"}, {"smiles": "CC1CCCCN1Cc1c(O)ccc2c(=O)c(-c3cccc(Cl)c3)c(C(F)(F)F)oc12", "note": "(stereo not given)", "survival": "inactive: 69%"}, {"smiles": "CCc1nnc(NC(=O)CSc2nc3c([nH]c4ccccc43)c(=O)n2-c2cc(C)cc(C)c2)s1", "survival": "inactive: 76%"}, {"smiles": "CCOc1ccc(Cn2c(=O)oc3ccccc32)cc1", "survival": "inactive: 114%"}, {"smiles": "O=C(C1CCC(CNS(=O)(=O)c2ccc(Br)s2)CC1)N1CCN(c2ccccc2)CC1", "note": "(stereo not given)", "survival": "inactive: 68%"}, {"smiles": "Clc1cccc(CNc2ncnc3c2nc2n3CCCC2)c1", "survival": "inactive: 92%"}, {"smiles": "Cc1nnc(SCc2cc(=O)n3c(C)cccc3n2)s1", "survival": "inactive: 81%"}, {"smiles": "COc1ccc(-n2ncc3c(N4CCN(c5cccc(C)c5)C(C)C4)ncnc32)cc1", "note": "(stereo not given)", "survival": "inactive: 127%"}, {"smiles": "Cc1ccc(-c2noc(COc3ccc(Br)c(C)c3)n2)cc1", "survival": "inactive: 124%"}, {"smiles": "COc1ccc(Cl)cc1NC(=O)CCc1nc(-c2ccccc2F)no1", "survival": "inactive: 38%"}, {"smiles": "Cc1c(C(=O)N2CCCC2)oc2c1-c1nn(CC(=O)NCc3cccc(Br)c3)cc1CC2", "survival": "inactive: 87%"}, {"smiles": "CC1S/C(=N\\C(=O)Nc2ccc(Cl)cc2)NC1=O", "note": "(stereo not given)", "survival": "inactive: 103%"}, {"smiles": "NS(=O)(=O)c1ccc(NC(=O)CCn2c(=O)oc3ccccc32)cc1", "survival": "inactive: 69%"}, {"smiles": "O=C(Cn1c(=O)n(Cc2ccc3c(c2)OCO3)c(=O)c2ccccc21)Nc1cccc(Cl)c1", "survival": "inactive: 60%"}]}]}
